Data as given in paper PMC4336329 (PLoS ONE, 2015).
Hit rate of the full screen: of about 310,000 compounds, about 2,200 (0.71%) showed an effect of 50% or more. Effects have a minus sign here. The list shows a part of the results.

These molecules were tested against human ether-à-go-go-related gene (hERG) potassium channel (human, UniProt Q12809) (assay: primary screen, population patch clamp on CHO cells stably expressing hERG).
Chain of human ether-à-go-go-related gene (hERG) potassium channel (Q12809 whole entry, looked up): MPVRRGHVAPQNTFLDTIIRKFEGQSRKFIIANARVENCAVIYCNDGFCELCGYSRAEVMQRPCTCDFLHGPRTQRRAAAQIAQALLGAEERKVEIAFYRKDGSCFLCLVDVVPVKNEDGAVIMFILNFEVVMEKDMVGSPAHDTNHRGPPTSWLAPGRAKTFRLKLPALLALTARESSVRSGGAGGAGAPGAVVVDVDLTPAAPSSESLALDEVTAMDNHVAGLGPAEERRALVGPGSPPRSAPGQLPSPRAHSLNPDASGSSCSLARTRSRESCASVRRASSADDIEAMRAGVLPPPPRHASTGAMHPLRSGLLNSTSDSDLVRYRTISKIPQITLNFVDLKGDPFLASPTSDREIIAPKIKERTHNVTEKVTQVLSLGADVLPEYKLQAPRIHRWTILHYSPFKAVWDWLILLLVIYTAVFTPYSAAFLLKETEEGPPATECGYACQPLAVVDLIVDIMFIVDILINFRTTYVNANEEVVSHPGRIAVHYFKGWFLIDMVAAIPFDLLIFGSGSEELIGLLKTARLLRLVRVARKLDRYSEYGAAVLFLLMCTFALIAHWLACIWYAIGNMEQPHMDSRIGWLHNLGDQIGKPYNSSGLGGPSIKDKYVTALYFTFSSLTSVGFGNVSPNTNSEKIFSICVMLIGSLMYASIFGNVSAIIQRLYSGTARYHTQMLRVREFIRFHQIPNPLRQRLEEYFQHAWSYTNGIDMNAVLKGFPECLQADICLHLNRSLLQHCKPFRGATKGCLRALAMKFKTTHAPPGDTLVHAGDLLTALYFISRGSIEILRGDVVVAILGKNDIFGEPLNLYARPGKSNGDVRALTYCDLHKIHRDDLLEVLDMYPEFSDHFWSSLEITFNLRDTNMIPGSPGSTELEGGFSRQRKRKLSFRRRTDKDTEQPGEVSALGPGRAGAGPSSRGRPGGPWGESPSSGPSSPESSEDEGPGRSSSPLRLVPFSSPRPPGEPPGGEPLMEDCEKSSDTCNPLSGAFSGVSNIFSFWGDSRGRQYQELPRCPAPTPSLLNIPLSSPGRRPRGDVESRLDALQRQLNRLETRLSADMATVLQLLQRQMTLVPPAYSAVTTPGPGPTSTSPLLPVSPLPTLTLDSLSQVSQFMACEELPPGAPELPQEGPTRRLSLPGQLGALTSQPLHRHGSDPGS

SMILES	hERG current change (%, negative = inhibition) at 1uM
O=C(COc1ccc(C(F)(F)F)cc1[N+](=O)[O-])Nc1cccc(C(F)(F)F)c1	13.4%
N#CC1=C(N)Oc2cc(N)ccc2C1c1ccccc1Cl (stereo not drawn)	12.7%
CC1CCN(C(=O)CSc2nncn2-c2ccccn2)CC1	-9.59%
CC(C)c1ccc(C(C(=O)NC2CCCC2)N(C(=O)CNC(=O)c2ccco2)c2cccnc2)cc1 (stereo not drawn)	4.41%
COCCNC(=O)[C@H](CSCc1ccccc1)N1Cc2ccccc2C1=O	-1.94%
Cc1cccc(NS(=O)(=O)c2cccc(C(=O)N3CCCC(C(F)(F)F)C3)c2)c1 (stereo not drawn)	0.23%
O=S(=O)(c1ccc(Cl)c(NC(=S)N/N=C/c2ccc(O)cc2)c1)N1CCOCC1	8.96%
CSCc1ccc(C(=O)NC(C)c2cnn(-c3ccccn3)c2C)o1 (stereo not drawn)	9.25%
CCN(CC)S(=O)(=O)c1cc(C(=O)OC(C)C(=O)NCc2ccco2)ccc1C (stereo not drawn)	8.22%
Cc1ccc2nsnc2c1NC(=O)c1ccc2c(c1)OCCO2	7.57%
O=S(=O)(Nc1nc2ccccc2nc1Cl)c1ccc(Br)cc1	14.8%
CC(=O)Nc1ccc(S(=O)(=O)NCCSc2ccccn2)cc1	4.41%
CCCN1CCC(NC(=O)Cc2cccc(C)c2)CC1	4.41%
COc1ccccc1Cc1nc(-c2cccnc2)no1	11.9%
COc1ccc(CCNC(=O)COC(=O)c2sc(C)nc2C)cc1	5.54%
CSc1ccccc1OCc1cc(C(=O)N(C)Cc2nonc2C)no1	9.21%
Cc1cc(C)n2nc(Cc3ccccc3)nc2n1	-5.47%
Cc1ccc(Nc2nc(NCCCN3CCOCC3)nc(N)c2[N+](=O)[O-])cc1	-56.2%
Cc1nc(-c2ccc(F)cc2)c(CC(=O)Nc2cccc(S(=O)(=O)N3CCOCC3)c2)s1	3.21%
Cc1c(CCOC(=O)CC23CC4CC(CC(C4)C2)C3)sc[n+]1CC(=O)c1ccc(Br)cc1.[Br-]	-63.5%
O=C1CC(c2ccc(Cl)cc2)n2nc(N3C(=O)CCC3=O)nc2N1 (stereo not drawn)	14%
CC(=O)Nc1ccc(S(=O)(=O)N(C)CC(=O)OCC(=O)Nc2ccc3c(c2)OCO3)cc1	7.49%
CCOCCCNC(=O)C1CCN(Cc2cccc(OCc3ccccc3)c2)CC1.O=C(O)C(=O)O	9.45%

SMILES	hERG current change (%, negative = inhibition) at 1uM
CCOC(=O)c1ccc(Nc2ccc([N+](=O)[O-])cn2)cc1	15.2%
O=C(NCc1ccccc1Cl)c1cccc(NC2=NC3CS(=O)(=O)CC3S2)c1 (stereo not drawn)	11.3%
CC(=O)c1cccc(NC(=O)NCc2cccnc2)c1	14.7%
CC1CCCCC1N(C)C1CCN(C(=O)CNC(=O)/C=C/c2cccc(Cl)c2)CC1 (stereo not drawn)	-47.7%
CCCCN(CC)C(=O)Cc1ccc(Br)cc1	14.5%
CN1C2CCC1/C(=C/c1cccn1C)C(=O)/C2=C\c1cccn1C	7.69%
CC(C)N(NC(=O)c1cccc2ccccc12)C(C)C	9.21%
CN(C)c1cccc(NC(=O)C2(C)CC2(Cl)Cl)c1 (stereo not drawn)	0.721%
CCOc1ccc(C2=Nn3c(nnc3-c3ccccc3)SC2)cc1Cl	18.5%
COc1ccccc1CN1CCN(Cc2nc(-c3cccs3)no2)CC1	-5.89%
Cc1ccc(S(=O)(=O)N/N=C/c2ccc(OCC(=O)NC(C)C)cc2)cc1	-9.04%
CC12CCC(C(=O)NCCc3ccccc3)(OC1=O)C2(C)C (stereo not drawn)	11.4%
O=C(CSc1ccc(F)cc1)N1CCC(c2nc3ccccc3s2)CC1	-30.3%
O=C(NC1=NCCS1)c1ccc(N2CCCC2=O)cc1	9.39%
O=C(NCc1cccc2[nH]ccc12)C1CCC(=O)N(CCc2ccc(Cl)cc2)C1 (stereo not drawn)	4.56%
C=CCn1c(O)c(/C=N/N2CCCCC2)c(=O)[nH]c1=O	-48%
CCN1CCC(n2nccc2NC(=O)c2ccccc2Cl)CC1	10.5%
CCc1nc(SCC(=O)O)c2c3c(sc2n1)COC(C)(C)C3	13.3%
CCNC(=O)CSc1nnc(-c2ccc(OC)cc2)n1CC(C)C	3.23%
Cc1cccc(C(C)C)c1NC(=O)CSc1nncn1C	-0.611%
COc1cc(C(=O)Nc2nc(C)cc(C)n2)cc(OC)c1OC	14.4%
CCOC(=O)CCCC(=O)N1CCOCCOCCN(C(=O)CCCC(=O)OCC)CCOCCOCC1	13.1%
O=C(Nc1nccs1)c1ccc(-c2ccc(F)c(Cl)c2)o1	-5.48%

SMILES	hERG current change (%, negative = inhibition) at 1uM
CC1CCCCN1C(=O)CCn1c(=O)oc2ccccc21 (stereo not drawn)	4.53%
Cc1ccc(S(=O)(=O)Nc2ccc(S(=O)(=O)Nc3cc(C)nc(C)n3)cc2)cc1	16.5%
Cc1sc(NC(=O)/C=C/c2ccc(C(C)C)cc2)c(C#N)c1C	0.196%
Cl.OCCN1CCN(CCSc2ccccc2)CC1	4.45%
Cc1[nH]c(=O)[nH]c(=O)c1NS(=O)(=O)c1ccc2c(c1)CCCC2	19.7%
O=C(Nc1cccc(Cl)c1)c1cnc[nH]1	14.9%
CCN(CC)C(=O)CN(c1ccc(C)cc1)S(=O)(=O)c1ccc(SC)cc1	6.52%
COc1ccc(S(=O)(=O)NNC(=O)c2ccc(-n3c(C)ccc3C)cc2)cc1	12.7%
O=c1oc2ccc(Br)cc2cc1S(=O)(=O)c1ccc(F)cc1	3.22%
O=C1COc2ccc(C(=O)CSc3ccc(Br)cc3)cc2N1	13.5%
Cc1ccc(-n2nc3c4c(cccc4c2=O)-c2ccccc2-3)cc1	4.99%
O=C(NCC(c1ccco1)N1CCCC1)c1sc2ccccc2c1Cl (stereo not drawn)	13.6%
CCCCNC(=O)c1onc(CSc2ccc(F)c(F)c2)c1C(=O)NCCCC	1.49%
Cc1cc(C(=O)NNC(=O)Nc2ccc(Cl)cc2)no1	14.6%
Cc1c(NC(=O)c2nn3c(C(F)(F)F)cc(-c4ccccc4)nc3c2Cl)c(=O)n(-c2ccccc2)n1C	1.07%
O=C1C2C3CCC(C3)C2C(=O)N1Cc1ccccc1 (stereo not drawn)	5.58%
C=CCn1c(SCc2nnc(-c3ccccc3)o2)nnc1C(O)c1ccccc1 (stereo not drawn)	2.77%
CSCCC(NS(=O)(=O)c1ccc(C)cc1)C(=O)N1CCN(S(=O)(=O)c2ccc(F)cc2)CC1 (stereo not drawn)	9.66%
CC(C)Cc1ccc(C(C)C(N)=NCCc2ccccc2)cc1.Cl (stereo not drawn)	-16%
COc1ccc(C(=O)COC(=O)/C=C/c2ccco2)cc1F	6.76%
COCCN(C(=S)Nc1cccc(OC)c1)C1CCN(C(C)C)CC1	1.92%
Cc1cc(C)c2oc(C(=O)NCCc3ccc(S(N)(=O)=O)cc3)cc(=O)c2c1	16.3%
CC(NO)C(C)(C)NO.Cl (stereo not drawn)	8.21%

SMILES	hERG current change (%, negative = inhibition) at 1uM
CCOC(=O)C1CCN(S(=O)(=O)c2ccc(C(C)=O)cc2)CC1	-1.82%
OC(Cc1nc2ccccc2[nH]1)c1ccccc1Cl (stereo not drawn)	6.43%
Cc1sc2ncnc(N3CCN(CCOc4ccc(Cl)cc4)CC3)c2c1C	2.86%
S=C(NCc1ccc(Cl)cc1)NCc1ccccn1	9.96%
COc1ccc(-c2c(C)nn3c(N4CCOCC4)cc(C)nc23)cc1OC	14.5%
CSCCc1nc(SCC(=O)Nc2nnc(C)s2)[nH]c1C	17%
CC(C)(C)C(=O)COC(=O)CNC(=O)c1ccc(Oc2ccccc2)cc1	5.18%
CC(C)N(Cc1ccccc1)C(=S)Nc1cccnc1	6.91%
COc1ccc(C2CC(c3cc(OC)ccc3OC)n3nnnc3N2)cc1 (stereo not drawn)	8.39%
COc1cc(NS(=O)(=O)c2ccc(NS(=O)(=O)c3ccc(C)cc3)cc2)nc(OC)n1	25.8%
CCOC(=O)CN1C(=O)Nc2ccc(Br)cc2C1c1ccccc1 (stereo not drawn)	-47.9%
Cc1cccc(NC(=O)Cn2c(=O)n(CC3CCCO3)c(=O)c3ccccc32)c1 (stereo not drawn)	22.5%
CCN(CCCNC(=O)CNC(=O)c1nn(-c2ccc(OC)c(OC)c2)c(=O)c2ccccc12)c1ccccc1	0.102%
O=C(COC(=O)/C=C/c1ccccc1)Nc1cc(C(F)(F)F)ccc1N1CCOCC1	13.4%
CCCc1cc(=O)[nH]c(SCc2ccc(Cl)cc2)n1	4.07%
Cc1cccc(Nc2ncnc3ccc(Br)cc23)c1	-7.88%
CCOC(=O)C1CCN(C(=O)c2cc3c(=O)n4ccccc4nc3n2C)CC1	13.6%
COc1ccc(OC)c(NC(=O)CSc2nnc(CNC(=O)c3ccco3)o2)c1	21.1%
CC(C)[C@H](NS(=O)(=O)c1ccc2c(c1)OCCO2)C(=O)OCC(=O)Nc1ccccc1	3.74%
Cc1nnsc1SCCNC(=O)c1c(F)cccc1F	12.7%
COC(=O)CCC(=O)Nc1cccc(Cl)c1	-0.811%
